Source: the supplement of paper PMC4967469
IC50 is the fitted dose that halves viability relative to control wells, and lower means more sensitive; fits outside the tested doses are given as limits. AUC is the area under the same curve over the 256-fold range up to the top dose, as a fraction; it is 1 without any effect and falls as sensitivity rises. For part of these data: The top dose, if marked as inferred, is not printed in the source and was worked back from the curve model. For part of these data: Where an entry number is given, a second screen of the drug exists; the two often differ.

How the values were obtained:
Test in all cases: Viability of human cancer cell lines after 72 h of drug (GDSC screen)
Thapsigargin = compound: C/C=C(/C)C(=O)O[C@H]1C(C)=C2[C@H]([C@@H]1OC(=O)CCCCCCC)[C@@](C)(OC(C)=O)C[C@H](OC(=O)CCC)[C@@]1(O)[C@H]2OC(=O)[C@@]1(C)O [Thapsigargin]; details: top dose 0.512 µM; top dose inferred
Description: (§1)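 Human cancer cell lines in 384-well plates, medium with 10% serum, drug for 72 h over a 256-fold dose range (nine 2-fold or five 4-fold steps up to the top dose). Adherent lines were fixed and stained with the nucleic acid dye Syto60, suspension lines read with resazurin; signal relative to control wells, capped at 0 and 100%. One two-parameter sigmoid per drug and line, fitted in a mixed model over all curves with the slope shared within a line.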

QL-X-138 = compound: C=CC(=O)Nc1cc(-n2c(=O)ccc3cnc4ccc(-c5cn[nH]c5)cc4c32)ccc1C [QL-X-138]; details: top dose 10.24 µM; top dose inferred
Description: as §1

GSK269962A = compound: CCn1c(-c2nonc2N)nc2cnc(Oc3cccc(NC(=O)c4ccc(OCCN5CCOCC5)cc4)c3)cc21 [GSK269962A]; details: top dose inferred
Description: as §1

MPS-1-IN-1 = compound: COc1cc(N2CCC(O)CC2)ccc1Nc1cc(Nc2ccccc2S(=O)(=O)C(C)C)c2cc[nH]c2n1 [MPS-1-IN-1]; details: top dose 20 µM; top dose inferred
Description: as §1

(5Z)-7-Oxozeaenol = compound: COc1cc(O)c2c(c1)/C=C/C[C@H](O)[C@H](O)C(=O)/C=C\C[C@H](C)OC2=O [(5Z)-7-Oxozeaenol]; details: top dose 10 µM; top dose inferred
Description: as §1

CP466722 = compound: COc1cc2ncnc(-n3nc(-c4ccccn4)nc3N)c2cc1OC [CP466722]; details: top dose 16 µM; top dose inferred
Description: as §1

Zibotentan = compound: COc1nc(C)cnc1NS(=O)(=O)c1cccnc1-c1ccc(-c2nnco2)cc1 [Zibotentan]; details: top dose 20 µM; top dose inferred
Description: as §1

ABT-888 = compound: C[C@]1(c2nc3c(C(N)=O)cccc3[nH]2)CCCN1 [ABT-888]; details: top dose 5 µM; top dose inferred
Description: as §1

CMK = compound: Cc1ccc(-c2c(C(=O)CCl)n(CCCO)c3ncnc(N)c23)cc1 [CMK]; details: top dose 4 µM; top dose inferred
Description: as §1

ABT-869 = compound: Cc1ccc(F)c(NC(=O)Nc2ccc(-c3cccc4[nH]nc(N)c34)cc2)c1 [ABT-869]; details: top dose 1.024 µM; top dose inferred
Description: as §1

CHIR-99021 = compound: Cc1cnc(-c2cnc(NCCNc3ccc(C#N)cn3)nc2-c2ccc(Cl)cc2Cl)[nH]1 [CHIR-99021]
Description: as §1

Cytarabine = compound: Nc1ccn([C@@H]2O[C@H](CO)[C@@H](O)[C@@H]2O)c(=O)n1 [Cytarabine]; details: top dose 2 µM
Description: as §1

KU-55933 = compound: O=c1cc(-c2cccc3c2Sc2ccccc2S3)oc(N2CCOCC2)c1 [KU-55933]; details: top dose 10 µM
Description: as §1

[1] = top dose 2.5 µM, screen: GDSC drug entry 127
[2] = top dose 5 µM, screen: GDSC drug entry 1192
[3] = top dose 2.56 µM, screen: GDSC drug entry 154
[4] = top dose 10 µM, screen: GDSC drug entry 1241, top dose inferred

Row | Cell Line | AUC (Thapsigargin) | IC50 (Thapsigargin) [µM] | AUC (QL-X-138) | IC50 (QL-X-138) [µM] | AUC (GSK269962A; [1]) | IC50 (GSK269962A; [1]) [µM] | AUC (GSK269962A; [2]) | IC50 (GSK269962A; [2]) [µM] | AUC (MPS-1-IN-1) | IC50 (MPS-1-IN-1) [µM] | AUC ((5Z)-7-Oxozeaenol) | IC50 ((5Z)-7-Oxozeaenol) [µM] | AUC (CP466722) | IC50 (CP466722) [µM] | AUC (Zibotentan) | IC50 (Zibotentan) [µM] | AUC (ABT-888) | IC50 (ABT-888) [µM] | AUC (CMK) | IC50 (CMK) [µM] | AUC (ABT-869) | IC50 (ABT-869) [µM] | AUC (CHIR-99021; [3]) | IC50 (CHIR-99021; [3]) [µM] | AUC (CHIR-99021; [4]) | IC50 (CHIR-99021; [4]) [µM] | AUC (Cytarabine) | IC50 (Cytarabine) [µM] | AUC (KU-55933) | IC50 (KU-55933) [µM]
1 | TE-12 (oesophagus, suspension) | 0.301 | 0.00774 | 0.727 | 3.31 | 0.95 | > 2.5 | 0.942 | > 5 | 0.866 | > 20 | 0.735 | 3.46 | 0.67 | 3.32 | 0.982 | > 20 | 0.981 | > 5 | 0.794 | 2.3 | 0.968 | > 1.02 | 0.968 | > 2.56 | 0.971 | > 10 | 0.956 | > 2 | 0.951 | > 10
2 | TE-15 (oesophagus, suspension) | 0.256 | 0.00575 | 0.613 | 1.36 | 0.968 | > 2.5 | 0.976 | > 5 | 0.718 | 5.68 | 0.91 | > 10 | 0.739 | 5.36 | 0.985 | > 20 | 0.985 | > 5 | 0.808 | 2.4 | 0.979 | > 1.02 | 0.922 | > 2.56 | 0.981 | > 10 | 0.897 | > 2 | 0.922 | > 10
3 | TGBC1TKB (biliary tract, adherent) | 0.195 | 0.00399 | 0.926 | > 10.2 | 0.988 | > 2.5 | 0.937 | > 5 | 0.975 | > 20 | 0.829 | 6.18 | 0.983 | > 16 | 0.989 | > 20 | 0.989 | > 5 | 0.835 | 2.6 | 0.987 | > 1.02 | 0.987 | > 2.56 | 0.988 | > 10 | 0.899 | > 2 | 0.961 | > 10
4 | TGW (neuroblastoma, adherent) | 0.205 | 0.00512 | 0.895 | 9.33 | 0.942 | > 2.5 | 0.778 | 1.73 | 0.673 | 3.5 | 0.799 | 4.02 | 0.839 | 8.75 | 0.992 | > 20 | 0.988 | > 5 | 0.837 | 2.16 | 0.988 | > 1.02 | 0.99 | > 2.56 | 0.984 | > 10 | 0.76 | 0.613 | 0.963 | > 10
5 | TK10 (kidney, adherent) | 0.461 | 0.0244 | 0.715 | 2.99 | 0.963 | > 2.5 | 0.898 | > 5 | 0.842 | 18.6 | 0.506 | 0.652 | 0.846 | 15.5 | 0.971 | > 20 | 0.98 | > 5 | 0.763 | 1.73 | 0.98 | > 1.02 | 0.953 | > 2.56 | 0.766 | 4.43 | 0.844 | 1.9 | 0.949 | > 10
6 | TUR (B-cell lymphoma, suspension) | 0.306 | 0.0096 | 0.447 | 0.464 | 0.989 | > 2.5 | 0.769 | 1.75 | 0.771 | 7.08 | 0.641 | 1.48 | 0.664 | 2.75 | 0.983 | > 20 | 0.987 | > 5 | 0.979 | > 4 | 0.979 | > 1.02 | 0.989 | > 2.56 | 0.954 | > 10 | 0.317 | 0.0402 | 0.943 | > 10
